Assay results reported in PubChem BioAssay AID485294 (National Center for Advancing Translational Sciences (NCATS), 2010).
The whole screen tested about 370,000 compounds, of which about 150 (0.041%) were called active. This list was built around the results that the source calls inconclusive (neither active nor inactive); the mix of calls is not that of the screen. Calls follow the shape of the dose curve; as a rule, active = well fitted inhibition curve with a large enough effect; inconclusive = small, poorly fitted or top-dose-only effect; inactive = flat fitted curve, though single readings scatter. Potencies of inconclusive entries are left out as doubtful fits.

target: Beta-lactamase (Escherichia coli (strain K12)) (UniProt P00811); test: qHTS Inhibitors of AmpC Beta-Lactamase (assay with detergent); conditions: AmpC hydrolysis of nitrocefin, absorbance 480 nm, 0.01% Triton; series mostly up to 114 µM; also: nearly all actives have a fitted effect of over 25% in size
Sequence of UniProt P00811 (P00811 whole entry, looked up): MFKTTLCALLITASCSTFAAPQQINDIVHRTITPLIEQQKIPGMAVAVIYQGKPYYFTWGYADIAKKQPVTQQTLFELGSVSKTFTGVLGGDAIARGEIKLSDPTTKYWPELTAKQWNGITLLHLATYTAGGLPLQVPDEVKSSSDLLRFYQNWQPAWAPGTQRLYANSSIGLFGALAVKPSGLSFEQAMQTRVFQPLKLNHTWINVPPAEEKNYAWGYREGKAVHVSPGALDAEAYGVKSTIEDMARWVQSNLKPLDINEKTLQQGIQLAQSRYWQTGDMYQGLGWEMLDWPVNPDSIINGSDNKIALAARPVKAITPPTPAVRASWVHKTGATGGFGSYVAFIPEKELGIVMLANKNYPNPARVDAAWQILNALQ
How it was run: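 AmpC (5.3 nM in the dispensed reagent) in 20 mM phosphate pH 7.0 with 0.01% (detergent screen) or 0.0001% Triton X-100 was preincubated with compounds for 15 min at room temperature. Nitrocefin was then added from an 800 uM solution, and hydrolysis was followed at 480 nm.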
Potency is read from the fitted curve at half-maximal effect; tags tell the direction and shape of the fitted curve.

How did the Potency turn out when `Cc1ccc(NC(=O)NC(=S)NC(=O)c2ccccc2)cc1` was run?
The Potency was “inactive”.

For `O=C(COc1ccc(S(=O)(=O)N2CCCC2)cc1Cl)NCc1ccc2c(c1)OCO2`, which Potency is on record?
The Potency was inconclusive [inhibitor, partial curve].

`O=C(c1ccc(Cn2c(=O)[nH]c3ccccc3c2=O)cc1)N1CCN(c2ccccn2)CC1` was tested. Which Potency did it give?
The Potency was inconclusive [inhibitor, full curve, poor fit].

`O=C(NC1CC1)C1CCN(S(=O)(=O)c2ccc(Cl)c([N+](=O)[O-])c2)CC1` was tested. Which Potency did it give?
The Potency was “inactive”.

Which Potency does the source give for `COc1cc(N=Nc2c(O)c3ccccc3[nH]c2=O)c(OC)cc1N=Nc1ccccc1` here?
Its Potency is “inactive”.

Which Potency does the source give for `COc1ccccc1-n1cnnc1SCC(=O)N1CCN(C(=O)c2ccco2)CC1` here?
The Potency was inconclusive [inhibitor, full curve].

How did the Potency turn out when `CC1(C)CC(NC(=O)COc2ccc3c4c(c(=O)oc3c2)CCCC4)CC(C)(C)N1` was run?
The Potency was inconclusive [inhibitor, full curve].

For `Cn1c(COc2ccc([N+](=O)[O-])cc2)nnc1SCC(=O)NCC1CCCO1` (centres undefined), which Potency is on record?
The Potency was inconclusive [inhibitor, partial curve].

Which Potency does the source give for `O=C(CCCN1C(=O)/C(=C/c2cccc(Br)c2)SC1=S)N1CCOCC1` here?
Its Potency is inconclusive [inhibitor, single point].

For `CC(C)(C)c1ccccc1NC(=S)NCc1ccccc1`, which Potency is on record?
Its Potency is inconclusive [inhibitor, single point].

Which Potency does the source give for `COc1ccccc1C1C2=C(CCCC2=O)N(CC(=O)O)C2=C1C(=O)CCC2` here?
The Potency was “inactive”.

`N#C/C(=C\c1cccc(O)c1)c1nc2ccccc2o1` was tested. Which Potency did it give?
Its Potency is “inactive”.

With `Cc1ccc2nc3c(cc(C(=O)NCC4CCCO4)c(=N)n3C3CCCC3)c(=O)n2c1` (centres undefined) as the molecule, how does the Potency read?
Its Potency is inconclusive [inhibitor, partial curve].

For `COc1ccc(S(=O)(=O)N2CCOCC2)cc1C(=O)NC1CCCCCC1`, which Potency is on record?
The Potency was inconclusive [inhibitor, full curve, poor fit].

With `CN1C(=O)N(C)C2(c3ccccc3)N(C(C)(C)C)C(=O)NC12c1ccccc1` (centres undefined) as the molecule, how does the Potency read?
The Potency was inconclusive [inhibitor, partial curve, poor fit].

For `Cc1ccccc1NC(=S)NNC(=O)c1cccnc1`, which Potency is on record?
Its Potency is “inactive”.

For `Nc1nnc(SCC(=O)NC2CCCC2)s1`, which Potency is on record?
Its Potency is inconclusive [inhibitor, full curve, poor fit].

`CCc1n[nH]c2c1/C(=N/O)CCC2` was tested. Which Potency did it give?
The Potency was inconclusive [inhibitor, single point].

For `O=C(Nc1cccc2ccccc12)/C(=C\c1cccc([N+](=O)[O-])c1)NC(=O)c1cccs1`, which Potency is on record?
The Potency was inconclusive [inhibitor, partial curve, poor fit].

For `Clc1ccc(-c2nnc(SCc3cn4ccsc4n3)n2CC2CCCO2)cc1` (centres undefined), which Potency is on record?
Its Potency is inconclusive [inhibitor, full curve, poor fit].

With `CCc1cc(=O)oc2cc(C)cc(OCC(=O)NC(Cc3ccc(Cl)cc3)C(=O)O)c12` (centres undefined) as the molecule, how does the Potency read?
Its Potency is inconclusive [inhibitor, full curve, poor fit].

How did the Potency turn out when `NC(=O)C1CCN(S(=O)(=O)c2cc3c(cc2Cl)NC(=O)CO3)CC1` was run?
Its Potency is “inactive”.

`COc1ccc(C(CNC(=O)C(CCSC)NC(=O)c2ccccc2Cl)N2CCCC2)cc1` (centres undefined) was tested. Which Potency did it give?
Its Potency is inconclusive [inhibitor, full curve, poor fit].

Which Potency does the source give for `O=C(NCC(c1ccco1)N1CCN(c2ccccc2F)CC1)OCc1ccccc1` (centres undefined) here?
The Potency was “inactive”.

How did the Potency turn out when `Cc1ccnc(NC(=O)c2ccccc2NC(=O)C(C)(C)C)c1` was run?
The Potency was inconclusive [inhibitor, partial curve, poor fit].

How did the Potency turn out when `COc1ccc(C(=O)c2c(-c3ccc(OC)cc3)oc3ccccc23)cc1` was run?
The Potency was “inactive”.

`CCCCOc1ccc(C(=O)Nc2ccc3c(c2)CCCN3C(=O)c2cccs2)cc1` was tested. Which Potency did it give?
Its Potency is “inactive”.

For `Cc1nc2nc(NC(=O)c3ccc(C(C)(C)C)cc3)[nH]n2c(=O)c1C`, which Potency is on record?
Its Potency is “inactive”.

`CCN1C(=O)c2ccccc2S(=O)(=O)c2ccc(C(=O)NCc3ccccc3)cc21` was tested. Which Potency did it give?
The Potency was “inactive”.

For `Cc1cccc(C)c1NC(=O)C(c1cccs1)N(Cc1ccco1)C(=O)Cn1nnc2ccccc21` (centres undefined), which Potency is on record?
Its Potency is inconclusive [inhibitor, full curve, poor fit].

Which Potency does the source give for `COc1ccc(N2CCN(Cc3nc4ccccc4[nH]3)CC2)cc1` here?
The Potency was inconclusive [inhibitor, single point].

Which Potency does the source give for `CC1CCN(C(=O)CSc2nc3[nH]ncc3c(=O)[nH]2)CC1` here?
The Potency was inconclusive [inhibitor, single point].

For `COc1cccc(-c2c(C#N)c(N)nc3c2c(C)nn3-c2ccccc2)c1O`, which Potency is on record?
The Potency was “inactive”.

`COc1ccc(CC(=O)Nc2cccc(SC)c2)cc1` was tested. Which Potency did it give?
Its Potency is inconclusive [inhibitor, partial curve, poor fit].

With `CCOC(=O)CNC(=O)CSc1nc(-c2ccccc2)ns1` as the molecule, how does the Potency read?
Its Potency is inconclusive [inhibitor, single point].

How did the Potency turn out when `Cc1ccc(N(C)C(=O)c2sc3nc4n(c(=O)c3c2C)CCCC4)cc1C` was run?
Its Potency is “inactive”.

Which Potency does the source give for `O=C(NC1CN2CCC1CC2)c1ccc(-c2ccc([N+](=O)[O-])cc2)o1` (centres undefined) here?
Its Potency is inconclusive [inhibitor, full curve].

For `COc1ccc(C)cc1NC(=O)CN1CCN(S(=O)(=O)c2ccc3ccccc3c2)CC1`, which Potency is on record?
Its Potency is “inactive”.

`Cc1cc(=O)oc(C)c1C(=O)OCC(=O)c1ccccc1` was tested. Which Potency did it give?
The Potency was “inactive”.

`CCCCN(CC)C(=O)CSc1nc2n[nH]c(C)c2c(=N)n1-c1ccc(CC)cc1` was tested. Which Potency did it give?
The Potency was “inactive”.

With `Cc1ccc(NC(=O)CC(C)CC2=NS(=O)(=O)c3ccccc3N2)cc1` (centres undefined) as the molecule, how does the Potency read?
The Potency was inconclusive [inhibitor, full curve, poor fit].

For `Cc1ccc2nc(/C=C/c3cccc(F)c3)ccc2c1`, which Potency is on record?
Its Potency is inconclusive [inhibitor, full curve].

`Cc1cn2c(nc(=O)c3cccnc32)s1` was tested. Which Potency did it give?
The Potency was inconclusive [inhibitor, full curve, poor fit].

How did the Potency turn out when `COc1ccc(NCC(=O)N/N=C/C(C)c2ccccc2)cc1` (centres undefined) was run?
The Potency was inconclusive [inhibitor, full curve, poor fit].
